Laboratory results taken from the supplement of paper PMC4967469.

Columns and labels:
Assay in all cases: Viability of human cancer cell lines after 72 h of drug (GDSC screen)
Gemcitabine = compound: Nc1ccn([C@@H]2O[C@H](CO)[C@@H](O)C2(F)F)c(=O)n1 [Gemcitabine]; conditions: top dose 1.024 µM
Method: (§1)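 Human cancer cell lines in 384-well plates, medium with 10% serum, drug for 72 h over a 256-fold dose range (nine 2-fold or five 4-fold steps up to the top dose). Adherent lines were fixed and stained with the nucleic acid dye Syto60, suspension lines read with resazurin; signal relative to control wells, capped at 0 and 100%. One two-parameter sigmoid per drug and line, fitted in a mixed model over all curves with the slope shared within a line.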

Nilotinib = compound: Cc1cn(-c2cc(NC(=O)c3ccc(C)c(Nc4nccc(-c5cccnc5)n4)c3)cc(C(F)(F)F)c2)cn1 [Nilotinib]; conditions: top dose 2 µM
Method: as §1

KIN001-270 = compound: Cc1ccc(Nc2cc(-c3cccc(N4C(=O)c5ccccc5C4=O)c3)ncn2)cc1NS(C)(=O)=O [KIN001-270]; conditions: top dose 20 µM; top dose inferred
Method: as §1

AUY922 = compound: CCNC(=O)c1noc(-c2cc(C(C)C)c(O)cc2O)c1-c1ccc(CN2CCOCC2)cc1 [AUY922]; conditions: top dose 0.256 µM; top dose inferred
Method: as §1

T0901317 = compound: O=S(=O)(c1ccccc1)N(CC(F)(F)F)c1ccc(C(O)(C(F)(F)F)C(F)(F)F)cc1 [T0901317]; conditions: top dose 10.24 µM; top dose inferred
Method: as §1

TW-37 = compound: CC(C)c1ccccc1Cc1cc(C(=O)Nc2ccc(S(=O)(=O)c3ccccc3C(C)(C)C)cc2)c(O)c(O)c1O [TW-37]; conditions: top dose 5 µM
Method: as §1

MP470 = compound: S=C(NCc1ccc2c(c1)OCO2)N1CCN(c2ncnc3c2oc2ccccc23)CC1 [MP470]; conditions: top dose 20 µM; top dose inferred
Method: as §1

LFM-A13 = compound: C/C(O)=C(\C#N)C(=O)Nc1cc(Br)ccc1Br [LFM-A13]; conditions: top dose 16 µM; top dose inferred
Method: as §1

Bicalutamide = compound: CC(O)(CS(=O)(=O)c1ccc(F)cc1)C(=O)Nc1ccc(C#N)c(C(F)(F)F)c1 [Bicalutamide]; conditions: top dose inferred
Method: as §1

[1] = top dose 1.024 µM, screen: GDSC drug entry 150
[2] = top dose 10 µM, screen: GDSC drug entry 1502

Cell Line | AUC (Gemcitabine) | pIC50 (Gemcitabine) | AUC (Nilotinib) | pIC50 (Nilotinib) | AUC (KIN001-270) | pIC50 (KIN001-270) | AUC (AUY922) | pIC50 (AUY922) | AUC (T0901317) | pIC50 (T0901317) | AUC (TW-37) | pIC50 (TW-37) | AUC (MP470) | pIC50 (MP470) | AUC (LFM-A13) | pIC50 (LFM-A13) | AUC (Bicalutamide; [1]) | pIC50 (Bicalutamide; [1]) | AUC (Bicalutamide; [2]) | pIC50 (Bicalutamide; [2])
BICR10 (head and neck, adherent) | 0.857 | < 5.99 | 0.984 | < 5.70 | 0.984 | < 4.70 | 0.669 | 7.29 | 0.97 | < 4.99 | 0.569 | 6.30 | 0.971 | < 4.70 | 0.963 | < 4.80 | 0.985 | < 5.99 | 0.971 | < 5.00
IGR-1 (melanoma, adherent) | 0.278 | 7.78 | 0.99 | < 5.70 | 0.966 | < 4.70 | 0.507 | 7.78 | 0.99 | < 4.99 | 0.432 | 6.68 | 0.945 | < 4.70 | 0.99 | < 4.80 | 0.99 | < 5.99 | – | –
KYSE-520 (oesophagus, adherent) | 0.52 | 7.13 | 0.894 | < 5.70 | 0.981 | < 4.70 | 0.6 | 7.48 | 0.976 | < 4.99 | 0.796 | 5.48 | 0.972 | < 4.70 | 0.957 | < 4.80 | 0.981 | < 5.99 | 0.979 | < 5.00
Hs939-T (melanoma, adherent) | 0.821 | 6.17 | 0.949 | < 5.70 | 0.965 | < 4.70 | 0.687 | 7.25 | 0.986 | < 4.99 | 0.483 | 6.55 | 0.97 | < 4.70 | 0.983 | < 4.80 | 0.984 | < 5.99 | 0.985 | < 5.00
JHH-1 (liver, adherent) | 0.494 | 7.21 | 0.981 | < 5.70 | 0.985 | < 4.70 | 0.669 | 7.31 | 0.967 | < 4.99 | 0.381 | 6.84 | 0.77 | 5.08 | 0.976 | < 4.80 | 0.985 | < 5.99 | 0.982 | < 5.00
TOV-21G (ovary, adherent) | 0.971 | < 5.99 | 0.943 | < 5.70 | 0.981 | < 4.70 | 0.705 | 7.19 | 0.599 | 5.91 | 0.338 | 6.97 | 0.973 | < 4.70 | 0.98 | < 4.80 | 0.984 | < 5.99 | 0.979 | < 5.00
SW780 (bladder, adherent) | 0.986 | < 5.99 | 0.986 | < 5.70 | 0.979 | < 4.70 | 0.98 | < 6.59 | 0.984 | < 4.99 | 0.881 | < 5.30 | 0.63 | 5.53 | 0.985 | < 4.80 | 0.96 | < 5.99 | 0.915 | < 5.00
H4 (glioma, adherent) | 0.161 | 8.22 | 0.959 | < 5.70 | 0.979 | < 4.70 | 0.494 | 7.81 | 0.968 | < 4.99 | 0.545 | 6.38 | 0.959 | < 4.70 | 0.932 | < 4.80 | 0.977 | < 5.99 | 0.964 | < 5.00
SU8686 (pancreas, adherent) | 0.453 | 7.33 | 0.984 | < 5.70 | 0.979 | < 4.70 | 0.604 | 7.49 | 0.984 | < 4.99 | 0.649 | 6.07 | 0.953 | < 4.70 | 0.973 | < 4.80 | 0.985 | < 5.99 | 0.983 | < 5.00
RPMI-2650 (head and neck, adherent) | 0.277 | 7.85 | 0.985 | < 5.70 | 0.94 | < 4.70 | 0.499 | 7.80 | 0.972 | < 4.99 | 0.501 | 6.50 | 0.942 | < 4.70 | 0.942 | < 4.80 | 0.985 | < 5.99 | 0.962 | < 5.00
NCI-H2122 (lung adenocarcinoma, adherent) | 0.072 | > 8.40 | 0.985 | < 5.70 | 0.988 | < 4.70 | 0.431 | 7.98 | 0.985 | < 4.99 | 0.66 | 6.07 | 0.986 | < 4.70 | 0.966 | < 4.80 | 0.978 | < 5.99 | 0.97 | < 5.00
NCI-H1437 (lung adenocarcinoma, adherent) | 0.281 | 7.83 | 0.983 | < 5.70 | 0.986 | < 4.70 | 0.583 | 7.56 | 0.944 | < 4.99 | 0.545 | 6.38 | 0.898 | < 4.70 | 0.968 | < 4.80 | 0.986 | < 5.99 | – | –

pIC50: −log10 of the molar value. The IC50 comes from the fitted curve, where viability falls to half of the control; fits outside the tested doses are given as limits. AUC is the area under the same curve over the 256-fold range up to the top dose, as a fraction: 1 means no effect, lower means more sensitive. For some assays here: Where the top dose is marked as inferred, it was calculated from the reported fits. For some assays here: An entry number marks a drug with two screens in the source, which often give different values.
